Data from PMC8866669.
No constants are given. Whether binding was seen depends on the method and setting. In cells and extracts the contact can be indirect. Some entries that bind do so weakly or less than the wild type. Sequences can lack the tags named with a protein.

Key:
[1] = target: TM4SF5-Strep A132V mutant (UniProt O14894); assay: pull-down; co-precipitation of GLUT8-FLAG with TM4SF5-Strep wild type or mutants from transfected cells (Fig. S5B-D); beads and treatment of the cells are not told in what was shown
[2] = target: TM4SF5-Strep N138A mutant (UniProt O14894); assay: as above
[3] = target: TM4SF5-Strep N155Q mutant (UniProt O14894); assay: as above
[4] = target: TM4SF5-Strep T157A mutant (UniProt O14894); assay: as above
[5] = target: TM4SF5-Strep V156A mutant (UniProt O14894); assay: as above
[6] = target: TM4SF5-Strep W154A mutant (UniProt O14894); assay: as above
[7] = target: TM4SF5-Strep glycosylation-deficient N138A/N155Q mutant (UniProt O14894); assay: as above
[8] = target: TM4SF5_(1-90)-Strep, C-terminal half-deleted mutant (UniProt O14894); assay: as above
[9] = target: T1, TM4SF5_(91-197)-Strep, N-terminal half-deleted mutant (UniProt O14894); assay: as above
T1 sequence: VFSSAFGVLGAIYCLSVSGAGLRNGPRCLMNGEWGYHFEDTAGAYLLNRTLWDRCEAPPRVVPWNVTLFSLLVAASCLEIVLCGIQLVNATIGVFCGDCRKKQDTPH

[10] = target: Transmembrane 4 L six family member 5 (TM4SF5), wild type, Strep-tagged (UniProt O14894); assay: as above
[11] = target: Transmembrane 4 L six family member 5 (TM4SF5), wild type, Strep-tagged (UniProt O14894); assay: condition: only ~15–30 min after fructose treatment (450 mg/dL) of glucose-starved cells; pull-down; as a1, but cells harvested ~15-30 min after fructose treatment (450 mg/dL) of glucose-starved Huh7 cells; streptavidin-agarose co-pulldown of TM4SF5-Strep
[12] = target: Transmembrane 4 L six family member 5 (TM4SF5), wild type, Strep-tagged (UniProt O14894); assay: pull-down; co-pulldown of TM4SF5-Strep with streptavidin-conjugated agarose beads from lysates of transfected Huh7 cells (IP lysis buffer: 40 mM HEPES pH 7.4, 150 mM NaCl, 1 mM EDTA, 0.5% Triton X-100); cells glucose-starved 16 h, without or with fructose (450 mg/dL; 0-120 min); the text calls it co-immunoprecipitation

binding [1]: binds
binding [2]: binds
binding [3]: binds
binding [4]: no binding
binding [5]: no binding
binding [6]: binds
binding [7]: binds
binding [8]: no binding
binding [9]: binds
binding [10]: binds
binding [11]: no binding
binding [12]: binds
B1: Glucose transporter 8 (GLUT8), FLAG-tagged (protein, UniProt Q9NY64 1-477)
chain: MTPEDPEETQPLLGPPGGSAPRGRRVFLAAFAAALGPLSFGFALGYSSPAIPSLQRAAPPAPRLDDAAASWFGAVVTLGAAAGGVLGGWLVDRAGRKLSLLLCSVPFVAGFAVITAAQDVWMLLGGRLLTGLACGVASLVAPVYISEIAYPAVRGLLGSCVQLMVVVGILLAYLAGWVLEWRWLAVLGCVPPSLMLLLMCFMPETPRFLLTQHRRQEAMAALRFLWGSEQGWEDPPIGAEQSFHLALLRQPGIYKPFIIGVSLMAFQQLSGVNAVMFYAETIFEEAKFKDSSLASVVVGVIQVLFTAVAALIMDRAGRRLLLVLSGVVMVFSTSAFGAYFKLTQGGPGNSSHVAISAPVSAQPVDASVGLAWLAVGSMCLFIAGFAVGWGPIPWLLMSEIFPLHVKGVATGICVLTNWLMAFLVTKEFSSLMEVLRPYGAFWLASAFCIFSVLFTLFCVPETKGKTLEQITAHFEGR
